Hit rate of the full screen: of about 410,000 compounds, about 6,400 (1.6%) were called active. This list was built around the results that the source calls inconclusive (neither active nor inactive); the mix of calls is not that of the screen. The call rests on the fitted dose curve; in most records, active means well fitted inhibition curve with a large enough effect; inconclusive means small, poorly fitted or top-dose-only effect; inactive means no such curve, though single readings can be large or run the other way. No potency is given beside an inconclusive call; the fits are too rough.
What follows are compounds tested against Glucagon-like peptide 1 receptor (Homo sapiens) (UniProt P43220) (assay: qHTS of GLP-1 Receptor Inverse Agonists (Inhibition Mode)). Conditions: HEK293 GLP-1R CRE-luciferase, luminescence, 24 h, GLP-1R form is constitutively active; series mostly up to 38.3 µM.
Summary of the method: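 Inverse agonists were sought by their lowering of basal cAMP reporter luciferase output in HEK293 cells stably carrying constitutively active human GLP-1R, after 24 h compound treatment.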
Further: nearly all actives have a fitted effect of over 55% in size.
Potency means the concentration at half of the fitted maximal effect; tags describe the fitted curve by direction and shape.

Chain of UniProt P43220 (P43220 whole entry, looked up): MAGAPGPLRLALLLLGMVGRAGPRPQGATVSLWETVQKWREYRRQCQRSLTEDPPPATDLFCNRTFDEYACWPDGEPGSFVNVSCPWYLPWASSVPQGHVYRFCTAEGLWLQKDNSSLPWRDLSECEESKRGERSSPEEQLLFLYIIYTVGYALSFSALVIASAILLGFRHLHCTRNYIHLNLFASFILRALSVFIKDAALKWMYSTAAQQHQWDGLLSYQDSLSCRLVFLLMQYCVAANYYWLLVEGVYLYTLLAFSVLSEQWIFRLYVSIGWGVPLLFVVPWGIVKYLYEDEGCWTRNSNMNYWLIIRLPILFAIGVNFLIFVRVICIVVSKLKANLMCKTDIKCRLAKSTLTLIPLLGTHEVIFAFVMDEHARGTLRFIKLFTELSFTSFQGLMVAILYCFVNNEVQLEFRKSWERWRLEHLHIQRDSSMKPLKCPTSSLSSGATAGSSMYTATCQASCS

SMILES | Potency
CC(C)(C)NC(=O)CCn1nc(-c2ccc(Cl)cc2)c2ccccc2c1=O | inconclusive [inhibitor, partial curve, poor fit]
O=S(=O)(NC1CCCCCC1)c1cccc(Cl)c1 | inconclusive [inhibitor, partial curve, poor fit]
Cc1c(C(=O)NCc2ccccc2Cl)sc2nc[nH]c(=O)c12 | inactive
Cc1cc(C)c(S(=O)(=O)c2c(C)cccc2C)c(Cl)n1 | inactive
COc1cccc(S(=O)(=O)NCc2ccc(C(=O)Nc3ccc(C)cc3)cc2)c1 | inconclusive [inhibitor, full curve, poor fit]
S=C(NCc1ccco1)Nc1ccc(Br)cn1 | inconclusive [inhibitor, partial curve, poor fit]
O=[N+]([O-])c1ccc(O)c(/C=N/Nc2nc3ccccc3[nH]2)c1 | inconclusive [inhibitor, single point]
O=[N+]([O-])c1ccc(C(=S)N2CCC(Cc3ccccc3)CC2)cc1 | inconclusive [inhibitor, partial curve, poor fit]
CCOCCCNC(=O)C(=O)Nc1c2c(nn1-c1ccc(OC)cc1)CSC2 | inactive
N#Cc1ccsc1NC(=O)C1CCN(C(=O)c2ccc(Cl)cc2)CC1 | inconclusive [inhibitor, single point]
Oc1ccc(C(=S)N2CCCCC2)cc1 | inactive
Cc1sc(NC(=O)Cc2ccc3c(c2)OCO3)nc1-c1ccc2c(c1)CCN2C(=O)c1ccc(F)cc1 | inconclusive [inhibitor, full curve, poor fit]
Cc1cc(NC(=O)c2c(-c3ccccc3Cl)noc2C)no1 | inconclusive [inhibitor, partial curve, poor fit]
CSc1nc(Oc2ccc3ccccc3c2)c2sccc2n1 | inconclusive [inhibitor, full curve, poor fit]
CCCCCCCCCCCNC(=O)c1ccoc1C | inconclusive [inhibitor, partial curve, poor fit]
Cc1cccc(OCCCn2c(CCNC(=O)C(C)(C)C)nc3ccccc32)c1 | inconclusive [inhibitor, partial curve, poor fit]
C/C(=N\Nc1cccc(Cl)c1)c1ccncc1 | inconclusive [inhibitor, partial curve, poor fit]
Cc1nc2cc(-c3ccccc3)nn2c(C)c1CCC(=O)NC(C)c1ccc2c(c1)OCCO2 (stereo unspecified) | inconclusive [inhibitor, single point]
COC(=O)c1c(NC(=O)Cn2nc(C(F)F)cc2C(F)F)sc(C)c1C | inconclusive [inhibitor, partial curve, poor fit]
CCCN1CCc2nc(N3CCN(c4ncccn4)CC3)ncc2C1 | inactive
CCOC(=O)CCc1ccc(NC(=O)/C=C/c2ccc([N+](=O)[O-])o2)cc1 | inconclusive [inhibitor, single point]
CC(C)CCC(C)N=Cc1c(O)n(Cc2ccccc2)c(=O)c2ccccc12 (stereo unspecified) | inconclusive [inhibitor, partial curve, poor fit]

SMILES | Potency
CC1=C(C(=O)N(C(C)C)C(C)C)CC(CC(=O)NC2CCCCC2)C(=O)N1CCC1=CCCCC1 (stereo unspecified) | inconclusive [inhibitor, partial curve]
Cc1ccc(C)c(CN2C(=O)c3ccccc3S(=O)(=O)c3ccc(C(=O)NCc4ccccc4)cc32)c1 | inactive
CCC(=O)Nc1ccc(Nc2ccccc2)cc1 | inactive
COc1ccc(CN2CCC[C@]3(N[C@H](c4ccc(C(F)(F)F)cc4)[C@@H]4C(=O)N(Cc5ccccc5)C(=O)[C@@H]43)C2=O)cc1 | active: 8.91 µM
COC(=O)c1ccc(C)cc1C1CN=NC12Cc1cc(C)ccc1C2=O (stereo unspecified) | inconclusive [inhibitor, partial curve]
COc1cccc(C2=CC(c3ccccc3F)n3c(nc4ccccc43)N2)c1 (stereo unspecified) | inconclusive [inhibitor, single point]
CN(Cc1ccccc1)C(=O)c1[nH]cnc1C(=O)NCc1ccccc1 | inactive
CCOc1ccccc1C(=O)NC(C)CCc1ccccc1 (stereo unspecified) | inconclusive [inhibitor, partial curve, poor fit]
O=C(c1cc(COc2ccc(F)cc2Cl)on1)N1CCc2ccccc2C1 | inconclusive [inhibitor, single point]
O=C1NC(CCc2ccccc2)C(=O)N1Cc1ccc(Br)cc1 (stereo unspecified) | inconclusive [inhibitor, single point]
COc1ccc2oc(C(=O)Nc3nc4ccccc4[nH]3)c(C)c2c1 | inconclusive [inhibitor, single point]
COc1ccccc1C(CNC(=O)c1ccc(S(=O)(=O)N2CCCCC2)cc1)N(C)C (stereo unspecified) | inconclusive [inhibitor, single point]
CCOC(=O)N1CCN(Cc2nc(-c3ccc(OC)cc3)no2)CC1 | inactive
CCc1ccc(-c2cn(-c3nc(C)cc(C)n3)c(=N)o2)cc1 | inconclusive [inhibitor, single point]
CC(CNC(=O)c1cc(COc2c(F)cccc2F)on1)c1ccccc1 (stereo unspecified) | inconclusive [inhibitor, single point]
Cc1ccc(CNC(=O)C(C)n2ccc3cc(S(=O)(=O)N4CCCC4)ccc32)cc1 (stereo unspecified) | inactive
CCN(CC)S(=O)(=O)c1ccc(N2CCOCC2)c(NC(=O)c2sccc2C)c1 | inconclusive [inhibitor, partial curve, poor fit]
Nc1ccc(OCc2ccccc2)cc1[N+](=O)[O-] | inconclusive [inhibitor, single point]
Cc1cccc(Oc2ccc(S(=O)(=O)N3CCCCC3)cc2N)c1 | active: 10 µM
CCOc1ccc(CSC2=NCCN2)cc1Cl | inconclusive [inhibitor, single point]
CSc1nc(O)c(C(c2cccc([N+](=O)[O-])c2)c2c(O)nc(SC)[nH]c2=O)c(=O)[nH]1 | inactive
CCNCCC(=O)N1c2ccccc2Sc2ccc(C(F)(F)F)cc21 | inconclusive [inhibitor, partial curve, poor fit]

SMILES | Potency
C=C(C)C(=O)OCC(=O)NCc1ccccc1 | inconclusive [inhibitor, single point]
CCCC(=O)Nc1ccc(C(=O)/C=C/c2ccc(SC)cc2)cc1 | inconclusive [inhibitor, partial curve, poor fit]
COc1ccc(NC(=O)CN2C(=O)C3(SCC(=O)N3c3cccc(OC)c3)c3ccccc32)cc1 (stereo unspecified) | inactive
CCCN(C(=O)c1cc2c(=O)oc3ccccc3c2s1)c1ccccc1C | inactive
O=C1NC(=Nc2ccc(F)cc2)SC1Cc1ccc(F)cc1 (stereo unspecified) | inconclusive [inhibitor, single point]
Cc1ccc(NCC(=O)Nc2cccc(F)c2)cc1S(=O)(=O)N1CCCCCC1 | inconclusive [inhibitor, partial curve, poor fit]
CCOc1ccccc1NC(=O)c1ccc(CN2CCc3ccccc3C2)cc1 | inconclusive [inhibitor, partial curve, poor fit]
CCCCc1c(-c2cccc(Br)c2)ncn1CCc1ccccc1OC | inconclusive [inhibitor, single point]
CCc1ccc2nc(N3C(=O)C(O)=C(C(=O)c4ccco4)C3c3cccs3)sc2c1 (stereo unspecified) | inconclusive [inhibitor, single point]
CCOc1ccc(NC(=O)c2cc(C3CC3)nc3c2cnn3C(C)C)cc1OC | inconclusive [inhibitor, single point]
CC1(C(=O)NCc2cccs2)Cc2c(-c3ccc(C(N)=O)cc3)ccnc2O1 (stereo unspecified) | inconclusive [inhibitor, full curve, poor fit]
O=C(NC(=S)N(CCO)Cc1ccccc1)c1cc(Br)ccc1Cl | inconclusive [inhibitor, full curve]
Cc1nc2cc(-c3cccc(F)c3)nn2c(C)c1CCC(=O)NC(C)CCc1ccco1 (stereo unspecified) | inconclusive [inhibitor, single point]
Brc1ccc(-c2cnc(-c3cccs3)o2)cc1 | inconclusive [inhibitor, single point]
O=C(c1ccc(Br)cc1)N1CCN(S(=O)(=O)c2ccccc2)CC1 | inconclusive [inhibitor, single point]
O=C(/C=C/c1cc([N+](=O)[O-])ccc1OC(F)F)NCc1ccc(F)cc1 | inconclusive [inhibitor, partial curve, poor fit]
CCCCCCCCCn1ccc(=N)cc1 | inconclusive [inhibitor, full curve]
Cc1ccc(C)c(N2CCN(c3nc4c(S(=O)(=O)c5ccccc5)nnn4c4ccc(Cl)cc34)CC2)c1 | inactive
CCOc1ccc2c(c1)c(=O)c(C(=O)c1ccc(CC)cc1)cn2CC(=O)Nc1ccccc1C | inactive
Cc1cccc(N2CCN(C(=O)c3cccc(N4C(=O)C5C6C=CC(C6)C5C4=O)c3)CC2)c1C (stereo unspecified) | inactive
COc1cccc(N2CC(NC(=O)C3CC3)CC2=O)c1 (stereo unspecified) | inactive
CN(C(=O)/C=C/c1ccccc1)C1CCCCC1 | inconclusive [inhibitor, partial curve]

From PubChem BioAssay AID624417 (National Center for Advancing Translational Sciences (NCATS), 2012)
